{
  "source": "paper PMC4336329",
  "about": "(PLoS ONE, 2015)",
  "note": "Out of some 310,000 compounds screened, about 2,200 (0.71%) showed an effect of 50% or more. The effect is printed as a negative number. Some of the results follow. Where a SMILES comes first, the peptide text is derived from it. [ ]: non-standard residue; d: D form. The star is where a group is joined. ξ: configuration not given here. ξF = NC(Cc1ccccc1)C(=O)O; Cbz = O=C(OCc1ccccc1)*",
  "data": [
    {"biological_target": "human ether-à-go-go-related gene (hERG) potassium channel (human, UniProt Q12809)", "sequence (Q12809 whole entry, looked up)": "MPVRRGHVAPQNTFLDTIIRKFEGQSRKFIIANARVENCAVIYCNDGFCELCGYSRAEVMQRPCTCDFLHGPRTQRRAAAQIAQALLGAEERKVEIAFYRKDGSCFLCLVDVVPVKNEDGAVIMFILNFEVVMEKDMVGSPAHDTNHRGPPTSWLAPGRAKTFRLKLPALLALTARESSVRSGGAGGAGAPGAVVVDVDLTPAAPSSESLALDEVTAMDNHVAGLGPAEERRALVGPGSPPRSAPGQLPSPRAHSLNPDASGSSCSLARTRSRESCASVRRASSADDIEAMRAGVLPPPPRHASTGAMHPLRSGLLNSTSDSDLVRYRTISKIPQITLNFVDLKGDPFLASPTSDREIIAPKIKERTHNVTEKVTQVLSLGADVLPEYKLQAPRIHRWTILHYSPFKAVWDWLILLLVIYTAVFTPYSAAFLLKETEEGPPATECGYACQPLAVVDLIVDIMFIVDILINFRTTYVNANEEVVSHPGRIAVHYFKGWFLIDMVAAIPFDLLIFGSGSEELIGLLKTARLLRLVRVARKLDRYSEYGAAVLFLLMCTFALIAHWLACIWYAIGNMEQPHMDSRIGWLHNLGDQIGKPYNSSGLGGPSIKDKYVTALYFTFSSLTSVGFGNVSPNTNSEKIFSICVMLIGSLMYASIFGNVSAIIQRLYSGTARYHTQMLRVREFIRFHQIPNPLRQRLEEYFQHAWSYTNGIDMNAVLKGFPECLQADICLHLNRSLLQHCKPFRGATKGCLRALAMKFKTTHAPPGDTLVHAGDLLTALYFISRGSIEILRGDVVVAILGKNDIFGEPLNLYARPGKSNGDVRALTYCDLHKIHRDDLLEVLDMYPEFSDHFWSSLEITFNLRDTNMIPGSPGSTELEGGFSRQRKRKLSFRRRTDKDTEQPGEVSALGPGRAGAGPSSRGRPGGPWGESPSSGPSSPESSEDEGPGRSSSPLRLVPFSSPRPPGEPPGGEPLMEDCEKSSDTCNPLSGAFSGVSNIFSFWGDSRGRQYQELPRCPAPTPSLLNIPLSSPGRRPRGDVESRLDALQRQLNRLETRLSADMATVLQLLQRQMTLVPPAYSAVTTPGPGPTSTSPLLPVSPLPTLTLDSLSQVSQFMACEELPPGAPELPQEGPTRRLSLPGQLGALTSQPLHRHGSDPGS", "test": "primary screen, population patch clamp on CHO cells stably expressing hERG", "units": {"hERG current change (%, negative = inhibition) at 1uM": "%"}, "values": [
      {"smiles": "O=C1NC(=O)N(Cc2ccco2)C(=O)/C1=C/c1cccn1CCOc1ccccc1Cl", "hERG current change (%, negative = inhibition) at 1uM": 5.64},
      {"smiles": "Cc1cc(=O)[nH]c(SC/C=C/c2ccccc2)n1", "hERG current change (%, negative = inhibition) at 1uM": 10.4},
      {"smiles": "Br.CN=c1sc(C(=O)Nc2cccc(Cl)c2)cc(=O)n1C", "hERG current change (%, negative = inhibition) at 1uM": 2.47},
      {"smiles": "CCOc1cc(N2CCOCC2)c(OCC)cc1NS(=O)(=O)c1cc(NC(C)=O)ccc1OC", "hERG current change (%, negative = inhibition) at 1uM": 11.6},
      {"smiles": "CC(C)N(C(=O)Cn1cnc2cc([N+](=O)[O-])ccc2c1=O)C(C)C", "hERG current change (%, negative = inhibition) at 1uM": 5.54},
      {"smiles": "O=C(O)CNC(=O)C(Cc1ccccc1)NC(=O)OCc1ccccc1", "note": "(centres unmarked) (Cbz-[ξF]-Gly-OH)", "hERG current change (%, negative = inhibition) at 1uM": 14.4},
      {"smiles": "O=Cc1c(NCc2ccccc2)c2ccccc2[nH]c1=O", "hERG current change (%, negative = inhibition) at 1uM": 12.6},
      {"smiles": "CCC(C(=O)NC1CCCCC1)n1c2ccccc2c2nc(=O)cc(C)n21", "note": "(centres unmarked)", "hERG current change (%, negative = inhibition) at 1uM": 10.5},
      {"smiles": "O=C(Nc1ccccc1-c1nc2ccccc2s1)C1=COCCO1", "hERG current change (%, negative = inhibition) at 1uM": 7.31},
      {"smiles": "CCc1cc(=O)oc2cc(C)cc(OCC(=O)NCC(O)c3ccccc3)c12", "note": "(centres unmarked)", "hERG current change (%, negative = inhibition) at 1uM": 6.19},
      {"smiles": "COc1ccc(CNC(=O)CSc2nc3cccnc3s2)cc1", "hERG current change (%, negative = inhibition) at 1uM": 7.12},
      {"smiles": "CCN(CC)CCNC(=O)C1c2ccccc2C(=O)N(CCOC)C1c1ccc(F)cc1", "note": "(centres unmarked)", "hERG current change (%, negative = inhibition) at 1uM": 15.4},
      {"smiles": "COC(=O)CCC(=O)Oc1ccc(OC(=O)CCC(=O)OC)cc1", "hERG current change (%, negative = inhibition) at 1uM": 10.6},
      {"smiles": "COc1ccc(OC(=O)c2cnn(-c3ccccc3)c2C)cc1", "hERG current change (%, negative = inhibition) at 1uM": 15.6},
      {"smiles": "O=C(CCSc1ccccc1)N1CCN(C(=O)c2ccco2)CC1", "hERG current change (%, negative = inhibition) at 1uM": 1.52},
      {"smiles": "O=C(c1n[nH]c(=O)c2ccccc12)N1CCN(S(=O)(=O)c2ccccc2Cl)CC1", "hERG current change (%, negative = inhibition) at 1uM": -5.55},
      {"smiles": "COc1ccc(CCC(=O)N/N=C(\\C)c2ccc3c(c2)OCO3)cc1", "hERG current change (%, negative = inhibition) at 1uM": 9.29},
      {"smiles": "N#Cc1ccc(NCC(=O)N2CCN(S(=O)(=O)c3ccccc3)CC2)cc1", "hERG current change (%, negative = inhibition) at 1uM": -32.3},
      {"smiles": "O=C(C=C1CCN(c2ncc(C(F)(F)F)cc2Cl)CC1)NNC(=O)Nc1ccccc1", "hERG current change (%, negative = inhibition) at 1uM": 2.66},
      {"smiles": "C=C(C)CSCc1nc2ccccc2[nH]1", "hERG current change (%, negative = inhibition) at 1uM": 18.6},
      {"smiles": "Cn1cccc1C(=O)NC(=O)COC(=O)CNS(=O)(=O)c1ccc(Br)cc1", "hERG current change (%, negative = inhibition) at 1uM": 5.34},
      {"smiles": "CN(Cc1nccn1C)C(=O)CC1C(=O)NCCN1Cc1ccc(F)cc1Cl", "note": "(centres unmarked)", "hERG current change (%, negative = inhibition) at 1uM": -2.2},
      {"smiles": "COC(=O)c1cc(Cl)c(N)cc1OC", "hERG current change (%, negative = inhibition) at 1uM": -7.25},
      {"smiles": "Cn1cc(CN2CCN(Cc3ccc4c(c3)OCO4)CC2)c(-c2ccccc2F)n1", "hERG current change (%, negative = inhibition) at 1uM": 1.05},
      {"smiles": "CCCCn1c(Nc2ccccc2)nc2ccccc21", "hERG current change (%, negative = inhibition) at 1uM": 17.1},
      {"smiles": "CCOc1ccccc1NC(=O)c1cc(=O)c2ccccc2o1", "hERG current change (%, negative = inhibition) at 1uM": 11.9},
      {"smiles": "COc1ccc(CCNC(=O)CSc2nnnn2-c2ccccc2OC)cc1OC", "hERG current change (%, negative = inhibition) at 1uM": 7.6},
      {"smiles": "O=C(Nc1ccc(F)cc1)Nc1ccc([N+](=O)[O-])cn1", "hERG current change (%, negative = inhibition) at 1uM": 14.9},
      {"smiles": "CC(C)n1nccc1NC(=O)Nc1ccccc1", "hERG current change (%, negative = inhibition) at 1uM": 17.6},
      {"smiles": "CC1(C)CCC(=O)N2CC[C@H]3C[C@H](OC(=O)Nc4ccccc4)C[C@@H]1[C@H]32", "hERG current change (%, negative = inhibition) at 1uM": -2.07},
      {"smiles": "COc1ccc(CNC(=O)COC(=O)CCc2nc3ccccc3c(=O)[nH]2)cc1", "hERG current change (%, negative = inhibition) at 1uM": 0.808},
      {"smiles": "CCc1noc(C)c1C(=O)N1CCCSC1=Nc1ccccc1C(C)C", "hERG current change (%, negative = inhibition) at 1uM": 5.73},
      {"smiles": "Cc1cccc(CS(=O)(=O)Cc2ccc(C(=O)NCc3cccnc3)o2)c1", "hERG current change (%, negative = inhibition) at 1uM": 12.6},
      {"smiles": "CC1(C)CC(=O)C2=C(C1)Oc1nc3ccccc3cc1C2C(C#N)C#N", "note": "(centres unmarked)", "hERG current change (%, negative = inhibition) at 1uM": 13.4},
      {"smiles": "CCOC(=O)C1CCCN(S(=O)(=O)c2ccc(S(=O)(=O)N(CC)CC)cc2)C1", "note": "(centres unmarked)", "hERG current change (%, negative = inhibition) at 1uM": 4.27},
      {"smiles": "C=C1CSc2nc(=O)c3c4c(sc3n21)CCCC4", "hERG current change (%, negative = inhibition) at 1uM": -8.42},
      {"smiles": "O=C(C1CCCN(Cc2ccccc2F)C1)N1CCCCC1.O=C(O)C(=O)O", "note": "(centres unmarked)", "hERG current change (%, negative = inhibition) at 1uM": 10.1},
      {"smiles": "CCc1nc(SCC(=O)c2cccs2)c2oc3ccccc3c2n1", "hERG current change (%, negative = inhibition) at 1uM": 12.7},
      {"smiles": "CCn1c(O)c(N=Nc2ccc(S(=O)(=O)N3CCOCC3)cc2)c(=O)n(CC)c1=S", "hERG current change (%, negative = inhibition) at 1uM": -1.96},
      {"smiles": "Cn1cccc1/C=N/n1c(-c2ccc(Cl)cc2Cl)n[nH]c1=S", "hERG current change (%, negative = inhibition) at 1uM": -14.9},
      {"smiles": "Cc1onc(-c2c(Cl)cccc2Cl)c1C(=O)N1CCN(c2ncccn2)CC1", "hERG current change (%, negative = inhibition) at 1uM": 9.25},
      {"smiles": "Cc1cc(C(=O)CSc2nnc(C3COc4ccccc4O3)n2C)c(C)n1-c1ccc(F)cc1", "note": "(centres unmarked)", "hERG current change (%, negative = inhibition) at 1uM": 4.24},
      {"smiles": "O=C(Cc1ccccc1F)Nc1cccc2cccnc12", "hERG current change (%, negative = inhibition) at 1uM": 0.881},
      {"smiles": "Cc1ccc(NC(=O)C2CCCN2C(=O)NC2CCCCC2)cc1F", "note": "(centres unmarked)", "hERG current change (%, negative = inhibition) at 1uM": 9.45}
    ]}
  ]
}
